# According to patent US10966978B2, “Dose and regimen for HDM2-p53 interaction inhibitors” (Novartis AG, priority 2016, dated 2021):
# Tested on: TP53 wild-type (WT) advanced solid tumors
# Type: in vivo, human
# [1] = 21 sarcoma patients, regimen 1B, September 2017
smiles,measurement,setting,value
"COc1ncc(-c2nc3c(n2C(C)C)[C@H](c2ccc(Cl)cc2)N(c2cc(Cl)cn(C)c2=O)C3=O)c(OC)n1 [HDM201, (S)-5-(5-Chloro-1-methyl-2-oxo-1,2-dihydro-pyridin-3-yl)-6-(4-chloro-phenyl)-2-(2,4-dimethoxy-pyrimidin-5-yl)-1-isopropyl-5,6-dihydro-1H-pyrrolo[3,4-d]imidazol-4-one]","partial response (PR), number of patients",[1],5
same,"progressed disease (PD), number of patients",[1],5
same,"stable disease (SD), number of patients",[1],11
same,"unconfirmed PR, number of patients","regimen 1B 120 mg, 9 patients treated, liposarcoma",1
same,"PR, number of patients","regimen 1B 120 mg, 9 patients treated, soft tissue sarcoma",1
